The supplement of paper PMC9446081
Hit rate of the full screen: of about 39,000 compounds, about 220 (0.56%) showed activity. The list shows a part of the results.

System: Escherichia coli K-12 BW25113
Assay: relative growth (OD600 normalised to plate interquartile mean) (fraction); higher = less growth inhibition, active = 0.2 or less
Settings: 50 µM; LB; incubation time: overnight (16-24 h)
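Note: static incubation at 37 °C against the wild-type strain, values averaged over two biological replicates.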

SMILES	relative growth
O=C(O)[C@@H]1[C@@H]2CC[C@@H](C2)[C@H]1C(=O)O	inactive: 1
C[C@@H]1CCCCO[C@H](CN(C)C(=O)NC2CCCCC2)[C@@H](C)CN([C@H](C)CO)C(=O)c2cc(NC(=O)c3ccccc3)ccc2O1	inactive: 0.981
CC(C)CC(=O)N1CCC(N)CC1	inactive: 0.972
Cc1noc(C)c1S(=O)(=O)Nc1ccc2c(c1)C(=O)N([C@H](C)CO)C[C@@H](C)[C@H](CN(C)S(=O)(=O)c1ccc(Cl)cc1)O2	inactive: 1
Cc1ccc(C(=O)CCNc2ccc3c(c2)oc2ccccc23)o1	inactive: 0.993
CCCCc1oc2ccc(NS(C)(=O)=O)cc2c1C(=O)c1ccc(OCCCN(CCCC)CCCC)cc1	inactive: 1.12
COc1ccc(NC(=O)Nc2ccc3c(c2)C(=O)N([C@@H](C)CO)C[C@H](C)[C@H](CN(C)S(=O)(=O)c2cccs2)OCCCC[C@H](C)O3)cc1	inactive: 1.01
Cc1noc(C)c1NC(=O)Nc1ccc2c(c1)C(=O)N([C@@H](C)CO)C[C@H](C)[C@@H](CN(C)C(=O)C1CCCCC1)OCCCC[C@H](C)O2	inactive: 0.989
C[C@H]1CN([C@@H](C)CO)C(=O)c2cc(NC(=O)Cn3cnnn3)ccc2O[C@H]1CN(C)C(=O)Nc1ccc2c(c1)OCO2	inactive: 1
Cc1noc(C)c1NC(=O)N(C)C[C@H]1Oc2ccc(NS(=O)(=O)c3ccccc3)cc2CC(=O)N([C@H](C)CO)C[C@@H]1C	inactive: 0.989
C[C@H](CO)N1C[C@H](C)[C@H](CN(C)Cc2ccc(C(=O)O)cc2)Oc2ccc(NS(C)(=O)=O)cc2CC1=O	inactive: 0.983
Cc1cc(C(=O)Nc2cccc3c2O[C@H](CN(C)Cc2ccc4c(c2)OCO4)[C@@H](C)CN([C@H](C)CO)C3=O)n(C)n1	inactive: 0.983
C[C@@H]1CN([C@@H](C)CO)C(=O)Cc2cc(NS(=O)(=O)c3cn(C)cn3)ccc2O[C@H]1CN(C)Cc1ccccc1	inactive: 0.997
C[C@H](CO)N1C[C@H](C)[C@@H](CN(C)S(=O)(=O)c2ccccc2)Oc2ccc(NC(=O)CCN3CCOCC3)cc2C1=O	inactive: 0.992
C[C@@H]1CN([C@H](C)CO)C(=O)Cc2cc(NC(=O)Nc3cccc4ccccc34)ccc2O[C@H]1CN(C)Cc1ccc(Oc2ccccc2)cc1	inactive: 1.01
CNC(=O)CN1CC[C@]12CCN(C(=O)c1ccn(C)n1)C2	inactive: 0.999
Cc1ccc(S(=O)(=O)Nc2ccc3c(c2)C(=O)N([C@@H](C)CO)C[C@@H](C)[C@@H](CN(C)Cc2ccccc2)OCCCC[C@H](C)O3)cc1	inactive: 1
C[C@H](CO)N1C[C@H](C)[C@H](CN(C)C(=O)Nc2cccc3ccccc23)Oc2ccc(NS(=O)(=O)c3ccc(F)cc3)cc2C1=O	inactive: 1.01
CN(C)CC(=O)N1[C@H](CO)[C@@H](c2ccc(C3=CCCC3)cc2)C12CN(S(=O)(=O)Cc1ccccc1)C2	inactive: 0.961

SMILES	relative growth
CC(C)NC(=O)Nc1ccc2c(c1)C(=O)N([C@H](C)CO)C[C@H](C)[C@@H](CN(C)Cc1ccccc1)OCCCC[C@H](C)O2	inactive: 0.985
C[C@@H]1CN([C@@H](C)CO)C(=O)c2cc(NC(=O)CCC(F)(F)F)ccc2O[C@@H](C)CCCCO[C@@H]1CN(C)C(=O)Cc1ccccc1	inactive: 0.983
C[C@@H]1CN([C@H](C)CO)C(=O)c2cc(C3=CCCC3)cnc2O[C@@H]1CN(C)C(=O)Nc1ccc(C(F)(F)F)cc1	inactive: 1.01
C[C@@H]1CN([C@@H](C)CO)C(=O)c2cccc(NC(=O)NC3CCCCC3)c2O[C@H]1CN(C)Cc1ccc(Cl)c(Cl)c1	inactive: 0.943
C[C@@H]1CCCCO[C@@H](CN(C)C)[C@@H](C)CN([C@H](C)CO)C(=O)c2cc(NC(=O)Nc3ccc(C(F)(F)F)cc3)ccc2O1	inactive: 0.986
C[C@H]1CN([C@@H](C)CO)C(=O)c2cccc(NS(C)(=O)=O)c2O[C@@H]1CN(C)C(=O)Nc1ccc(F)cc1	inactive: 0.995
Cc1noc(C)c1NC(=O)Nc1ccc2c(c1)CC(=O)N([C@H](C)CO)C[C@H](C)[C@@H](CN(C)Cc1ccc(C(F)(F)F)cc1)O2	inactive: 0.993
CN(C)C(=O)C[C@H]1CC[C@@H](NC(=O)C2CCOCC2)[C@H](CO)O1	inactive: 0.99
C[C@@H]1CCCCO[C@H](CN(C)Cc2ccc(C(=O)O)cc2)[C@H](C)CN([C@H](C)CO)C(=O)c2cc(NC(=O)Nc3ccccc3)ccc2O1	inactive: 1.02
C[C@H](CO)N1C[C@H](C)[C@H](CN(C)CC2CCCCC2)OCCCC[C@H](C)Oc2ccc(NS(=O)(=O)c3ccc(F)cc3)cc2C1=O	inactive: 0.973
COc1cccc(S(=O)(=O)N(C)C[C@@H]2Oc3ncc(C#CC(C)C)cc3C(=O)N([C@@H](C)CO)C[C@H]2C)c1	inactive: 0.958
COC(=O)C1=CC(CCCO)=C[C@@H](c2cccs2)N(Cc2cccc(OC(F)(F)F)c2)C=C1C(=O)OC	inactive: 0.939
Cc1cccc(NC(=O)Nc2ccc3c(c2)C(=O)N(C)[C@H]2CC[C@H](CC(=O)NCc4ccccc4Cl)O[C@@H]2CO3)c1	inactive: 1.04
CC(=O)N1C[C@@H](O)C[C@H]1C(=O)O	inactive: 1.03
C[C@H](NC(=O)N(C)C[C@H]1OCc2ccccc2-c2ccccc2C(=O)N([C@H](C)CO)C[C@H]1C)c1ccccc1	inactive: 1.01
Cc1ccc(S(=O)(=O)N(C)C[C@H]2Oc3ccc(NC(=O)Cn4cnnn4)cc3C(=O)N([C@@H](C)CO)C[C@@H]2C)cc1	inactive: 0.987
C[C@H]1CCCCO[C@H](CN(C)S(=O)(=O)c2ccccc2)[C@@H](C)CN([C@@H](C)CO)C(=O)c2cc(NC(=O)C3CCCCC3)ccc2O1	inactive: 1.01
Cn1cnc(CCNC(=O)C[C@H]2CC[C@H]3[C@@H](COC[C@H](O)CN3C(=O)C3CC3)O2)c1	inactive: 0.992
COCCNC(=O)C[C@@H]1CC[C@H]2[C@@H](COC[C@H](O)CN2C(=O)Nc2ccccc2OC)O1	inactive: 1.01
